Whole data set: some 33,000 sequences, median “E-score (-0.5 to 0.5)” near -0.054, cut for the highest 2% near 0.39. The list shows a part of the results.
target: Ylr278c (UniProt Q05854); experiment: PBM E-score (8-mer binding enrichment) (E-score (-0.5 to 0.5)); higher = stronger / more preferred TF binding; most listed sequences are background and not binding sites; conditions: protein concentration: 200 nM; construct: GST-DNA-binding domain
In short: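 Using PURExpress in vitro transcription/translation, GST-tagged yeast transcription factors were made in full-length or DNA-binding-domain form. These were applied at about 100-200 nM to double-stranded universal all-10-mer Agilent arrays, and bound protein was detected with fluorescent anti-GST. Scans were normalised with masliner before the Universal PBM Analysis Suite assigned E-scores to ungapped eight-base words pooled with their reverse complements.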

| Sequence | PBM E-score |
| --- | --- |
| GTAATTGA | 0.06 |
| GATTTACC | 0.224 |
| ATGGCAAT | -0.106 |
| CTAGCTAC | -0.25 |
| GACCGGGA | 0.359 |
| GAACTTCC | 0.179 |
| AGATATCA | -0.0909 |
| TGGTATAA | -0.0848 |
| CATAACGC | -0.0267 |
| CATAGCGC | 0.105 |
| AAACGAAA | 0.0454 |
| AAGCTCAG | -0.282 |
| TAAGCTCA | -0.161 |
| CGTTTGAG | -0.165 |
| CCACACGA | -0.136 |
| AACGCGTT | 0.0285 |
| GTTCCCCA | -0.183 |
| TAGGAACA | -0.123 |
| GATGTGAA | -0.0613 |
| GATATACC | 0.124 |
| AAACTTCC | 0.248 |
| CCATACCC | 0.0966 |
| CGGAGACA | 0.39 |
| CTGTGGGC | -0.15 |
| GGCACCGA | 0.0998 |

| Sequence | PBM E-score |
| --- | --- |
| AGGAGGGC | -0.171 |
| CTGGGAGC | -0.169 |
| CCATTCCA | -0.134 |
| AACGCGTC | 0.025 |
| AAAACATC | -0.155 |
| CAACAGAG | -0.0308 |
| GCGAAATA | 0.056 |
| CGCGGTGA | 0.136 |
| GAAGCAAC | -0.12 |
| ACCCTTAT | -0.098 |
| CCCCCGGA | 0.395 |
| AATCGCGC | 0.141 |
| AAAATTCG | 0.074 |
| AGCTTTCC | 0.117 |
| AGAGCCGA | 0.158 |
| ATCCGAAC | 0.344 |
| AGGTGAGA | -0.178 |
| CTAGTACA | -0.131 |
| GGCTATTA | -0.0724 |
| CGTACCAA | -0.0391 |
| CTCTGTGA | -0.248 |
| ACCACGAA | -0.167 |
| ACGTGATG | -0.305 |
| AAACAGCG | 0.0864 |
| GTGGACGA | -0.093 |

| Sequence | PBM E-score |
| --- | --- |
| ATGGCAGC | -0.138 |
| AGGAAAAC | 0.024 |
| CTCACTGC | -0.157 |
| GACTATTA | -0.118 |
| TTTAAAAA | 0.0255 |
| CATGTAGG | -0.0591 |
| ATGGATAA | -0.0876 |
| AGGGAATC | -0.0348 |
| ATAACGAT | -0.112 |
| AGGGAAGA | -0.244 |
| AGCCGTCG | 0.0398 |
| AAATACTG | -0.0665 |
| ACTGCGCG | 0.155 |
| CACGGAGG | 0.394 |
| CATACGGG | 0.0552 |
| CAAGTATA | -0.246 |
| ACGGCTGC | -0.0478 |
| CTCAGGAG | -0.171 |
| CAGACTAG | -0.375 |
| CCATCGAA | -0.181 |
| CACCAGTG | -0.283 |
| CGCTGGAC | -0.0955 |
| AGTTTCAC | -0.256 |
| CAGTTGGG | -0.304 |
| ATAATCGA | -0.125 |

| Sequence | PBM E-score |
| --- | --- |
| AGAGTGGG | -0.102 |
| ACTTCCGC | 0.342 |
| CAGTTCCC | 0.216 |
| ACGCATAC | 0.0245 |
| ACCGTCGC | 0.25 |
| ACATGACT | -0.245 |
| CGCAGTCA | -0.0968 |
| ACCTGTGG | -0.154 |
| CTATTGCA | -0.052 |
| GTACAAGA | -0.0981 |
| AGCTGTTA | -0.199 |
| AGAACCCT | -0.065 |
| CAAATAGA | -0.0141 |
| CTCCTAGA | -0.13 |
| AAGCTGTA | -0.131 |
| ATTGAGCA | -0.234 |
| AAAATGAC | -0.0313 |
| ACCCTCGA | -0.0827 |
| ACATTAAT | 0.0263 |
| CTTCAATC | -0.0498 |
| CGGAGGGC | 0.375 |
| AACCTAGC | 0.0403 |
| CCGTTGGA | 0.105 |
| AGAGAGAG | -0.293 |
| GATTGTCA | 0.00867 |

| Sequence | PBM E-score |
| --- | --- |
| ATAACCCA | -0.0649 |
| TCCGACGA | 0.397 |
| CAATTCCC | 0.19 |
| CATTGCAC | -0.0913 |
| TGCGTCAA | -0.0322 |
| CACCCAAA | -0.0681 |
| ACCAATAA | -0.0201 |
| CTGCGTAA | -0.0237 |
| CTTTTGCA | -0.155 |
| CCATAGGA | -0.14 |
| TCCAGGAA | -0.0456 |
| AAATTCAG | -0.043 |
| ATCCAGAG | -0.211 |
| GTGCAAAA | -0.271 |
| AGTCAGCG | 0.0403 |
| GAACCACC | 0.058 |
| TCCCCTAA | -0.0951 |
| TCGCAAGA | -0.147 |
| CTTGACGC | -0.0517 |
| GTCGGAGA | 0.444 |
| ACTGCTGC | -0.051 |
| ACTTGCGG | 0.151 |
| ACCAGCTG | -0.235 |
| TACGTACA | -0.187 |
| AAGTCAGG | 0.0453 |

| Sequence | PBM E-score |
| --- | --- |
| CATATCAA | -0.0107 |
| GGCCCCAA | -0.0242 |
| CGCTAGGC | -0.0311 |
| AAGATAGA | -0.155 |
| CAGGTATA | -0.0991 |
| AGCCGAAT | 0.286 |
| AACGCTGG | -0.142 |
| ACGTATTC | -0.0234 |
| CCTTATCG | 0.103 |
| GCTTCGCC | -0.0684 |
| AGGTACGC | 0.0166 |
| AGTAATGC | 0.0484 |
| AACCGAGA | 0.105 |
| CACGCGGG | 0.0412 |
| CGAGGCTC | -0.118 |
| CTAGCGGA | 0.255 |
| GTAAACCA | 0.166 |
| ATTCGTAG | -0.112 |
| CTCCCCAC | -0.021 |
| ATTTTCAG | -0.0345 |
| TCGACAAA | -0.0156 |
| GCTAGCCC | -0.0364 |
| ATCCTCTA | -0.258 |
| GGTAAGAA | -0.0877 |
| AACGTCGG | 0.213 |

| Sequence | PBM E-score |
| --- | --- |
| ATAGCTTA | -0.133 |
| CATGATGC | -0.265 |
| ATGGCTAG | -0.244 |
| AGGAGACC | -0.145 |
| CGTGTGCC | -0.126 |
| GCAGCCCC | 0.19 |
| ATGGCGCG | 0.103 |
| CCGTGCGC | 0.192 |
| ACCTTACG | 0.00341 |
| GGATATTA | 0.217 |
| AGATGCAT | -0.158 |
| CAACTCAG | -0.114 |
| ATCCCCAT | 0.00014 |
| ATGTATGC | 0.0115 |
| CCGTACGC | 0.192 |
| CAAGGGAG | -0.0698 |
| AAGCCGGT | 0.333 |
| GCGGGAGC | 0.0811 |
| TATTGTGA | -0.0942 |
| AGCTTCGC | -0.251 |
| CGTCCTAG | -0.0244 |
| AAAGACTA | -0.0707 |
| ATCTAATA | -0.146 |
| CCCCATCA | -0.0787 |
| CAGCTATC | -0.133 |

| Sequence | PBM E-score |
| --- | --- |
| ACTAGACA | -0.0591 |
| CGTAGATC | 0.0972 |
| AGAGGATA | -0.2 |
| AGTGGTAC | -0.277 |
| ATGATCCG | 0.273 |
| CCTGCCAG | -0.283 |
| ACGTTCCG | 0.289 |
| GTTCCGGA | 0.45 |
| AAAACGAC | -0.245 |
| ATGCAGCG | 0.0411 |
| AGAATAGG | -0.014 |
| CCCCCCGC | -0.0604 |
| GGCAGGCC | -0.0509 |
| GCTGTGCA | -0.143 |
| CAAAGGTG | -0.196 |
| GGCCAGCA | 0.0322 |
| AATCCTAT | 0.181 |
| CCAGGTTC | -0.0589 |
| CCATCAGC | -0.0147 |
| CCCAATCC | -0.0104 |
| GGAGACAA | 0.196 |
| CTTTCCTC | -0.15 |
| GCGACCCA | 0.0314 |
| AGCTGTTG | -0.184 |
| TCGAGTAA | -0.0996 |

| Sequence | PBM E-score |
| --- | --- |
| ATGAGAAG | -0.236 |
| AGGCGCCT | -0.177 |
| ACGCGAGC | 0.0976 |
| GAGGTCCA | 0.102 |
| CAAACTGG | -0.192 |
| ACGGGGAT | 0.352 |
| AACGAATA | -0.12 |
| CACCCTCG | -0.00684 |
| GCAGTAGC | -0.206 |
| TTGGAAAA | -0.107 |
| AGGCAATA | -0.201 |
| CTTGGGTC | -0.171 |
| AAGTCTGA | -0.409 |
| CGAGGCCG | 0.181 |
| CTAGGGAC | -0.132 |
| CAGCCATA | -0.212 |
| GTGTCTCA | -0.152 |
| CACAGAAC | -0.205 |
| AGGAGAAG | -0.151 |
